The other results are listed elsewhere or left out. These are noisy estimates, calculated here from bound and input reads.
target: T1, Pho4 (S. cerevisiae) (UniProt P07270); assay: relative binding free energy (BET-seq); higher = weaker binding; conditions: reference: library average
T1 sequence: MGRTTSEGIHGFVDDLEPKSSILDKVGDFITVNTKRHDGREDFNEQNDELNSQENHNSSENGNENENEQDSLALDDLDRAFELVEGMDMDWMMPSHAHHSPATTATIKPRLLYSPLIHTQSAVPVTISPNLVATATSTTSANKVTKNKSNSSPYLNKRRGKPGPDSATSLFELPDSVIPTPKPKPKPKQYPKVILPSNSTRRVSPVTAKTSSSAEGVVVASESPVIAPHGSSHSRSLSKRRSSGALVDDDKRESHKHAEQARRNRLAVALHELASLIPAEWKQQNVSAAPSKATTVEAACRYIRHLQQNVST

| Sequence | relative binding free energy [kcal/mol] |
| --- | --- |
| TGCAACACGTGGTAGT | -0.03 |
| CTGTGCACGTGATTTT | 0.13 |
| CAGAGCACGTGAGTGT | 0.05 |
| AATTTCACGTGGAGAG | 0.19 |
| TTTAACACGTGTTCTT | -0.01 |
| TATGGCACGTGAACTT | 0.08 |
| TTGTCCACGTGTTGTG | -0.02 |
| ATTTGCACGTGGGCTT | -0.04 |
| TTCGACACGTGCGGGG | -0.11 |
| GGATGCACGTGGGATG | 0 |
| AAGTACACGTGTGTAA | 0.11 |
| GAAGGCACGTGTCTTT | 0.2 |
| CTTTACACGTGGGTGC | -0.06 |
| ATCATCACGTGAGTTT | 0.33 |
| TGTCTCACGTGTGCTA | 0.15 |
| ATGTTCACGTGTAATG | 0.2 |
| CAAATCACGTGGGGTT | 0.08 |
| CGGGGCACGTGTAAGA | -0.08 |
| TTCGACACGTGGTCGT | -0.07 |
| TAATTCACGTGATTAT | 0.41 |
| AGTTTCACGTGACGGG | 0.51 |
| CATTGCACGTGGTGGT | -0.03 |
| TTTCGCACGTGTAGGA | 0.02 |

| Sequence | relative binding free energy [kcal/mol] |
| --- | --- |
| TTTTGCACGTGCTGAC | 0.12 |
| GAGGGCACGTGTTGGA | 0 |
| CGATGCACGTGTTTGT | 0 |
| CATGCCACGTGGTGTG | -0.26 |
| TAGTGCACGTGGTGAA | -0.2 |
| AAGCTCACGTGAGTGT | 0.43 |
| AGGAGCACGTGGCGGC | -0.32 |
| TTGTACACGTGACGTG | 0.15 |
| AACATCACGTGGGTTT | 0.1 |
| GAGTTCACGTGTTAGC | 0.29 |
| GGGTACACGTGGGTTC | 0.09 |
| GGTTTCACGTGCTGAT | 0.29 |
| TAAGGCACGTGAGAAG | 0.13 |
| TCAGGCACGTGGGCTG | -0.23 |
| TTTATCACGTGTAGGC | 0.11 |
| TCTGACACGTGTTGCG | 0.15 |
| CGTTACACGTGGTAGG | 0.02 |
| AATGGCACGTGGGTGA | -0.14 |
| TGGTACACGTGCTGCG | -0.05 |
| TACATCACGTGTGTGG | 0.12 |
| AAAGGCACGTGTTGGT | -0.08 |
| AGATTCACGTGCATGG | 0.2 |
| GTTCTCACGTGGGCGA | 0.21 |

| Sequence | relative binding free energy [kcal/mol] |
| --- | --- |
| TATGGCACGTGTTATA | -0.08 |
| GTGTTCACGTGTGGCA | 0.31 |
| CGGTACACGTGATGGG | 0.14 |
| ATGTGCACGTGAGTGG | 0.21 |
| TAGTTCACGTGCAATG | 0.38 |
| GAGTACACGTGTATTT | 0.18 |
| TCGTTCACGTGATGCT | 0.39 |
| CTGGTCACGTGGTGTA | -0.03 |
| TTAGGCACGTGAGAAG | 0.21 |
| ATCGTCACGTGTGCGT | 0.14 |
| GCACGCACGTGTGGGG | -0.25 |
| TGCGGCACGTGGAGGG | -0.07 |
| GACTTCACGTGGGCGG | 0.38 |
| AGTAACACGTGGGCTG | -0.21 |
| GGTTTCACGTGGAAGT | 0.35 |
| TTGTACACGTGTGCAG | -0.13 |
| ATAATCACGTGAATTG | 0.19 |
| TGTATCACGTGAGCGG | 0.45 |
| GTGTACACGTGGTCTT | 0 |
| TGCTGCACGTGTGCGG | 0.02 |
| GACGTCACGTGTTTGG | 0.18 |
| AATATCACGTGGGATA | 0.19 |
| TGGGGCACGTGTCCGT | -0.19 |

| Sequence | relative binding free energy [kcal/mol] |
| --- | --- |
| GGGTCCACGTGCGGGG | -0.03 |
| AGATGCACGTGAAGGC | 0.31 |
| CTATGCACGTGTATGT | -0.04 |
| GACGTCACGTGAAGTG | 0.44 |
| TGTTTCACGTGATTAT | 0.38 |
| TGCGGCACGTGAGGGT | 0.09 |
| AAGTGCACGTGGTGAT | -0.17 |
| ATAGGCACGTGTGGAT | -0.08 |
| CGTAGCACGTGATTGT | 0 |
| AGATTCACGTGTAGTT | 0.19 |
| ATGATCACGTGGCTTG | 0.09 |
| GTCAGCACGTGATGGG | 0 |
| TTGTGCACGTGCAGGA | -0.12 |
| ATGTACACGTGGTTTG | 0.02 |
| ATTTTCACGTGCACGT | 0.15 |
| CATTCCACGTGGGGGT | -0.12 |
| TAATCCACGTGTTGTA | 0.06 |
| TTGGCCACGTGAATAG | 0.44 |
| CTAGGCACGTGTGTAC | 0.01 |
| TTTAACACGTGAAGGT | 0.37 |
| ATTCGCACGTGTAATG | -0.05 |
| GGGTTCACGTGTGCTC | 0.31 |
| TTTTGCACGTGGCGCA | -0.12 |

| Sequence | relative binding free energy [kcal/mol] |
| --- | --- |
| AATTTCACGTGAAGGA | 0.43 |
| TACGACACGTGTTGGG | -0.02 |
| GATGGCACGTGCGGGG | -0.18 |
| GCGGGCACGTGGGTTC | -0.17 |
| GTGTACACGTGGTTGA | 0.02 |
| ACTTACACGTGGTTTT | 0.07 |
| TTATGCACGTGGGCAA | -0.22 |
| CAGTTCACGTGGTATT | 0.33 |
| TGCTTCACGTGTGTCG | 0.28 |
| GTATGCACGTGGGGCG | -0.1 |
| TCGGACACGTGGGATG | -0.09 |
| GGCGTCACGTGGGAGT | 0.21 |
| TTTAACACGTGGAGTG | -0.05 |
| TGTCGCACGTGGGATG | -0.12 |
| GAAGTCACGTGTAAGT | 0.22 |
| TCGTTCACGTGGTGTT | 0.22 |
| AGGCTCACGTGAGTTT | 0.3 |
| CGAAGCACGTGGTGCG | -0.11 |
| GGTTGCACGTGTCATG | 0 |
| CGCGGCACGTGTATGT | -0.09 |
| GTAGGCACGTGTAATG | 0.06 |
| TTTGCCACGTGTGGCG | 0.15 |
| TCTCTCACGTGTTTGT | 0.22 |
